For some assays here: Most of the strong results are listed elsewhere, so they are rarer here than in the full data. This is a selection; strong and weak results do not stand in their true shares.
Columns and labels:
[1] = target: T1, Serine/threonine-protein kinase TBK1 (Homo sapiens) (UniProt Q9UHD2); details: at 1 µM;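 further: values are mean inhibition of TBK1, screened as part of the GSK published kinase inhibitor set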
T1 sequence (whole entry): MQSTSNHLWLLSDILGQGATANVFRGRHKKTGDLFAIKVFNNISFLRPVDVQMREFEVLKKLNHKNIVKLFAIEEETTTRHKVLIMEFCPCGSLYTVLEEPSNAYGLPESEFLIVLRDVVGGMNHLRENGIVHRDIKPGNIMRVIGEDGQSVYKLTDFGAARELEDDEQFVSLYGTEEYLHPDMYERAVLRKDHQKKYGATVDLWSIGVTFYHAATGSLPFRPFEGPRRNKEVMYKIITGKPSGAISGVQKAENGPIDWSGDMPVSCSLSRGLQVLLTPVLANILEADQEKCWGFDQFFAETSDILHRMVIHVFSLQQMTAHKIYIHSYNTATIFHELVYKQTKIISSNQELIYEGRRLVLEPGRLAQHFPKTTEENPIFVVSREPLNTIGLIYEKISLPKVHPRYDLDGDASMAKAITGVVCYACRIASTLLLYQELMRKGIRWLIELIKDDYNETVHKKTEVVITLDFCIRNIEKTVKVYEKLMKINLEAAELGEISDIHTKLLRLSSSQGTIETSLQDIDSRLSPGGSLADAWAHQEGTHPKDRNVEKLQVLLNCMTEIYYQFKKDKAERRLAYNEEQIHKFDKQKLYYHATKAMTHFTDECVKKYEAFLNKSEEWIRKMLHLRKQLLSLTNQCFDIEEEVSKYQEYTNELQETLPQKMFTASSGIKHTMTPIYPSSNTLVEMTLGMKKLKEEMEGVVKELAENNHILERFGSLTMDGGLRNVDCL

[2] = target: T2, Testis-specific serine/threonine-protein kinase 1 (Homo sapiens) (UniProt Q9BXA7); details: at 0.1 µM
T2 sequence (whole entry): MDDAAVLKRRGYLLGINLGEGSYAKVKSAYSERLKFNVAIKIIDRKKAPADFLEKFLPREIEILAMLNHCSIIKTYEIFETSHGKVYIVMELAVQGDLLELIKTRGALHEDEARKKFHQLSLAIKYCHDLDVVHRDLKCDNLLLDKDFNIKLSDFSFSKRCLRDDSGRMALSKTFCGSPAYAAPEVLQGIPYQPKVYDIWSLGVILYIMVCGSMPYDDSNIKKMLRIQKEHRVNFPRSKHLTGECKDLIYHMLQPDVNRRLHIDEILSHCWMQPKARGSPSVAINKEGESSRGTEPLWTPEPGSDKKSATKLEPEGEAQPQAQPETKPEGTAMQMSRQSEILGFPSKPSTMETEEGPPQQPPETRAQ

[3] = target: T2, Testis-specific serine/threonine-protein kinase 1 (Homo sapiens); details: at 1 µM
[4] = target: T3, Testis-specific serine/threonine-protein kinase 2 (Homo sapiens) (UniProt Q96PF2); details: at 0.1 µM
T3 sequence (whole entry): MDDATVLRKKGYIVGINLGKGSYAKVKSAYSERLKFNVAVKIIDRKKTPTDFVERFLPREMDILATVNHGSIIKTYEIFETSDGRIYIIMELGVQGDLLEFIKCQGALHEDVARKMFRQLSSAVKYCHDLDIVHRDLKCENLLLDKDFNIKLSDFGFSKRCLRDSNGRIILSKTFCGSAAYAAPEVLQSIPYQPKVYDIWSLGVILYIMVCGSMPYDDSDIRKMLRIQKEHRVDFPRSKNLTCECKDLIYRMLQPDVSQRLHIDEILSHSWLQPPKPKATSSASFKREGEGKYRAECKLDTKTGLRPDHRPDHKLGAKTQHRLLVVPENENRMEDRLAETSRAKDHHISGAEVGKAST

[5] = target: T3, Testis-specific serine/threonine-protein kinase 2 (Homo sapiens); details: at 1 µM
[6] = target: Casein kinase I isoform alpha (Homo sapiens) (UniProt P48729); details: at 0.1 µM
[7] = target: Casein kinase I isoform alpha (Homo sapiens) (UniProt P48729); details: at 1 µM
[8] = target: Casein kinase I isoform gamma-1 (Homo sapiens) (UniProt Q9HCP0); details: at 0.1 µM
[9] = target: Casein kinase I isoform gamma-1 (Homo sapiens) (UniProt Q9HCP0); details: at 1 µM
[10] = target: Casein kinase I isoform gamma-2 (Homo sapiens) (UniProt P78368); details: at 0.1 µM;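 further: values are mean inhibition figures reported as part of the GSK PKIS dataset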
Sequence of UniProt P78368 (P78368 whole entry, looked up, canonical isoform): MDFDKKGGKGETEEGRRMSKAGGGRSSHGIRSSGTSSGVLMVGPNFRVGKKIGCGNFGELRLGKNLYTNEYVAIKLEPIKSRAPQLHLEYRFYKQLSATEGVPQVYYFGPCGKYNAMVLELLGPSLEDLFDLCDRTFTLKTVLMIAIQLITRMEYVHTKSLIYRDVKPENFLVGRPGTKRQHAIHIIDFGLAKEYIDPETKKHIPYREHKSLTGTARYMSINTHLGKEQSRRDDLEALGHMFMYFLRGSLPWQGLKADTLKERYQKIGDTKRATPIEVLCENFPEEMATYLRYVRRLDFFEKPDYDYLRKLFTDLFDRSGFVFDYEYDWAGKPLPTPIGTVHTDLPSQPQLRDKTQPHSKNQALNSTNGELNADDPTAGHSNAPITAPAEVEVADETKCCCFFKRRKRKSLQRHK

Sequence of UniProt Q9HCP0 (Q9HCP0 whole entry, looked up, canonical isoform): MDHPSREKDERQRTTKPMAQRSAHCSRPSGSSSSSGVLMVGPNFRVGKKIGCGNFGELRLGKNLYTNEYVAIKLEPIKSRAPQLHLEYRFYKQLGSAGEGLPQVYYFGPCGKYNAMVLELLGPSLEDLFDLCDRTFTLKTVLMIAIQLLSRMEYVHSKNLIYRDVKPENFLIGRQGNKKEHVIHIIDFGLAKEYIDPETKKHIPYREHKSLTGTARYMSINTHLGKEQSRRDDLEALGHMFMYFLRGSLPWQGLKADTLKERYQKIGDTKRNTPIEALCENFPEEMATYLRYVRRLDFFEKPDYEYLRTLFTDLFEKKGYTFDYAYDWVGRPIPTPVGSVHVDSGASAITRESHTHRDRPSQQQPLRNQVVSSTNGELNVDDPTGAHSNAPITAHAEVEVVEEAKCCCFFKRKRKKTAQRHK
Sequence of UniProt P48729 (P48729 whole entry, looked up, canonical isoform): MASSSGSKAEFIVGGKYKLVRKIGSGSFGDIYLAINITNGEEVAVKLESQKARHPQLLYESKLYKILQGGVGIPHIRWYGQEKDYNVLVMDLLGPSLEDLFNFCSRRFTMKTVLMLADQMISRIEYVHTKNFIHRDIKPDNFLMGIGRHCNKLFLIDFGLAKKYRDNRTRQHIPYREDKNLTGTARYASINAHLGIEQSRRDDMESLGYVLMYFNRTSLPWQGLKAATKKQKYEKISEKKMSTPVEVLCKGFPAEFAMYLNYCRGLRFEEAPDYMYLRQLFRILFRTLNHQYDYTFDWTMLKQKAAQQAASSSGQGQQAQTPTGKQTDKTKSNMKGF

| SMILES | inhibition [1] [%] | inhibition [2] [%] | inhibition [3] [%] | inhibition [4] [%] | inhibition [5] [%] | inhibition [6] [%] | inhibition [7] [%] | inhibition [8] [%] | inhibition [9] [%] | inhibition [10] [%] |
| --- | --- | --- | --- | --- | --- | --- | --- | --- | --- | --- |
| Fc1ccc(-c2ncn(C3CCNCC3)c2-c2ccnc(Oc3ccc(Cl)cc3)n2)cc1 | 1.95 | 1.38 | 0.67 | 0.78 | 0.7 | 1.66 | 18.4 | 0.9 | 3.97 | 0.06 |
| Fc1ccc(Oc2nccc(-c3c(-c4ccc(F)cc4)ncn3C3CCNCC3)n2)cc1 | 4.08 | 3.23 | 3.22 | 1.2 | 2.24 | 5.04 | 21.5 | 0.33 | 2.87 | 0.69 |
| Cc1cccc(Oc2nccc(-c3c(-c4ccc(F)cc4)ncn3C3CCNCC3)n2)c1C | 2 | 2.84 | 4.08 | 0.86 | 1.22 | 4.01 | 17.9 | 4.85 | 10.5 | 4.11 |
| COc1ccccc1Oc1nccc(-c2c(-c3ccc(F)cc3)ncn2C2CCNCC2)n1 | 5.91 | 3.26 | 4.04 | 1.91 | 2.51 | 4.7 | 19.5 | 4.1 | 8.25 | 3.57 |
| Fc1ccc(-c2ncn(C3CCNCC3)c2-c2ccnc(Oc3cccc(C(F)(F)F)c3)n2)cc1 | 3.82 | 6.19 | 5.46 | 3.19 | 2.98 | 5.38 | 21.1 | 4.86 | 12.7 | 4.6 |
| O=C1NC(=O)C(c2ccccc2)=C1Nc1ccccc1 | 7.59 | 6.09 | 5.4 | 3.22 | 3.4 | 1.4 | 6.83 | 4.53 | 5.09 | 4.11 |
| COc1ccccc1C1=C(Nc2ccccc2)C(=O)NC1=O | 7.18 | 4.19 | 2.98 | 2.63 | 1.76 | 3.01 | 4.21 | 2.08 | 3.07 | 2.29 |
| CS(=O)(=O)c1ccc(Oc2nccc(-c3c(-c4ccc(F)cc4)ncn3C3CCNCC3)n2)cc1 | 0.82 | 4.91 | 4.43 | 2.7 | 1.85 | 3.95 | 10.1 | 3.96 | 5.6 | 3.58 |
| O=C(O)c1ccc(Oc2nccc(-c3c(-c4ccc(F)cc4)ncn3C3CCNCC3)n2)cc1 | 4.39 | 5.41 | 4.67 | 1.61 | 1.97 | 3.89 | 15.7 | 4.29 | 6.6 | 4.39 |
| O=C1NC(=O)C(c2cccc([N+](=O)[O-])c2)=C1Nc1cc(Cl)c(O)c(Cl)c1 | 47.4 | 0.09 | 0.86 | 0.66 | 0.2 | -1.53 | -0.13 | 1.34 | 1.75 | 1.4 |
| NC(=O)CCc1ccccc1Oc1nccc(-c2c(-c3ccc(F)cc3)ncn2C2CCNCC2)n1 | 2.87 | 0.33 | 0.07 | -1.49 | -1.51 | -0.1 | 6.15 | -0.12 | 0.11 | 0.21 |
| O=C1NC(=O)C(c2ccccc2Cl)=C1Nc1cc(Cl)c(O)c(Cl)c1 | 6.6 | 3.01 | 5.57 | 1.49 | 4.24 | 2.96 | 2.34 | 3.19 | 4.09 | 3.49 |
| Fc1ccc(-c2ncn(C3CCNCC3)c2-c2ccnc(Oc3cccc(F)c3)n2)cc1 | 6.05 | 4.27 | 4.36 | 1.64 | 2.19 | 6.73 | 31.8 | 4.61 | 9.25 | 3.64 |
| CC(C)(C)c1ccc(Oc2nccc(-c3c(-c4ccc(F)cc4)ncn3C3CCNCC3)n2)cc1 | 4.71 | 3.19 | 4.6 | 1.5 | 2.01 | 8.17 | 36.6 | 5.84 | 24.2 | 4.62 |
